Inconclusive results and toxic doses are left out. Rule as the data show it: active = T/C of 150% or more; inactive = T/C below 125%.
System: L1210 leukemia ip in BDF1 mice, survival T/C
Test: NCI In Vivo Anticancer Drug Screen. Data for tumor model L1210 Leukemia (intraperitoneal) in B6D2F1 (BDF1) mice
Details: endpoint: mean survival time, schedule: Q01DX001 (ip), higher = longer survival
In short: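 Tumor was transplanted into mice, which were then dosed with test compound or vehicle alone. Survival was recorded for each group, and the treated figure was expressed relative to the control figure.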

Measured: T/C

O=C(/C=C/c1ccccc1)Nc1ccccc1
inactive: dose: 50.0 mg/kg/injection, vehicle: other 96 % of control | dose: 100.0 mg/kg/injection, vehicle: other 100 % of control | dose: 200.0 mg/kg/injection, vehicle: other 90 % of control | dose: 400.0 mg/kg/injection, vehicle: other 102 % of control

CCCCCCCCc1ccc(O)cc1
inactive: dose: 100.0 mg/kg/injection, vehicle: saline with Tween-80 = 105 % of control | dose: 200.0 mg/kg/injection, vehicle: saline with Tween-80 = 105 % of control | dose: 400.0 mg/kg/injection, vehicle: saline with Tween-80 = 102 % of control
